Hit rate of the full screen: of about 310,000 compounds, about 14,000 (4.5%) showed an effect of 50% or more. The effect is printed as a negative number. The list shows a part of the results.
The compounds below were run against human ether-à-go-go-related gene (hERG) potassium channel (human, UniProt Q12809) (assay: primary screen, population patch clamp on CHO cells stably expressing hERG).
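Note: peak tail current of the secondary pulse compared with the same well before compound.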

Sequence of human ether-à-go-go-related gene (hERG) potassium channel (Q12809 whole entry, looked up): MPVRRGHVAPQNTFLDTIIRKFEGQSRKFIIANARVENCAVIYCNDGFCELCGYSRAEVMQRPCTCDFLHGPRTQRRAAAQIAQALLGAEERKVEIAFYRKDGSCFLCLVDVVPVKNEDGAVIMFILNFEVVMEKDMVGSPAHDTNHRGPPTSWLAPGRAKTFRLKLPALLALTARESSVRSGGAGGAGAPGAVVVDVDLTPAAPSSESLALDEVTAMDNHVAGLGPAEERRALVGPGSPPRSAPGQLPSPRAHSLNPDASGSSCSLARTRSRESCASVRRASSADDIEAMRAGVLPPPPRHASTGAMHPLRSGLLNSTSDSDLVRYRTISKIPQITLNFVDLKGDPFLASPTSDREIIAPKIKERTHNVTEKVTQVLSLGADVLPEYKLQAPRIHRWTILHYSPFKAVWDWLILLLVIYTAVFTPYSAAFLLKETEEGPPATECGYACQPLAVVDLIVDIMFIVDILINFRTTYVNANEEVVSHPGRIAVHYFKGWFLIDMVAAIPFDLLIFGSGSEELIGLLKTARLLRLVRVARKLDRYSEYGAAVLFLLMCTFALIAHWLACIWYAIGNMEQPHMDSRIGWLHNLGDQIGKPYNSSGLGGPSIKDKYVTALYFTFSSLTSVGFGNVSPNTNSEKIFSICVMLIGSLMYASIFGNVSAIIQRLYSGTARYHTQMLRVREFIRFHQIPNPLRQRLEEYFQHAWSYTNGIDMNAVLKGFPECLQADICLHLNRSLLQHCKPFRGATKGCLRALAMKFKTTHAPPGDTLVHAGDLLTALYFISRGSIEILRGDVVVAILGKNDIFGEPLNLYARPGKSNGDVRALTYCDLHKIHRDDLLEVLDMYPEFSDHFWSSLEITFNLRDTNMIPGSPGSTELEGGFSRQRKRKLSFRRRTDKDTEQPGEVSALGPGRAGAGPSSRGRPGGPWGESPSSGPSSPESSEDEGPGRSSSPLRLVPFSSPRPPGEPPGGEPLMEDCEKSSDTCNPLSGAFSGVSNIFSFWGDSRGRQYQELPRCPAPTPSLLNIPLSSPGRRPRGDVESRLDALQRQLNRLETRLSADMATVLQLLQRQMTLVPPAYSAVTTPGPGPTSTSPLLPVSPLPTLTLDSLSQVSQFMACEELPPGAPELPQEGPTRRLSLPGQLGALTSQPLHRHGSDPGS

SMILES	hERG current change (%, negative = inhibition) at 10uM [%]
CC(C)(C)NC(=O)NC(=O)COC(=O)c1ccc(OC(F)(F)F)cc1	10.7
CCc1ccc(C(O)(CC)C(CN2CCOCC2)c2ccccc2)cc1.Cl (stereo not shown)	-17
COc1ccccc1OCc1ccc(C(=O)N2N=C(C(F)F)CC2(O)C(F)F)o1 (stereo not shown)	-11.5
Cc1nc(NCC2CCCO2)c2nnn(Cc3ccccc3Cl)c2n1 (stereo not shown)	-17.7
Nc1ccc2nn(-c3cc([N+](=O)[O-])ccc3O)nc2c1	12.3
COc1ccc(-c2nnc(SCC(=O)Nc3cc(C)on3)o2)cc1	14.4
O=C(CSc1ncnc2c1cnn2-c1cccc(Cl)c1)NCC1CCCO1 (stereo not shown)	7.88
COc1ccc(C(=O)Cc2cc(OC)c(OC)cc2C(=O)c2ccccc2F)cc1OC	-14.7
O=C(CCc1ccccc1)OCC(=O)c1ccc(Br)cc1	20.6
O=C(Nc1ccccn1)C(F)(F)C(F)(F)C(F)(F)C(F)(F)C(=O)Nc1ccccn1	-18
Cl.O=[N+]([O-])c1ccc(N2CCCNCC2)c2ncccc12	-64.8
CCOc1ccc(NC(=O)C(c2ccccn2)N(C(=O)CCl)c2ccc(OC)cc2)cc1 (stereo not shown)	-1.51
CCOc1cc(NC(=O)c2ccccn2)c(OCC)cc1NC(=O)c1cccc(C)c1	8.7
CSC(=S)N/N=C/c1ccccc1	29.6
S=C(Nc1ccccc1)Nc1cccc(Br)c1	3.13
CN(C(=O)CSc1nc2[nH]ncc2c(=O)[nH]1)c1ccccc1	13.6
COCCN(C(=O)COc1ccccc1C#N)c1c(N)n(Cc2ccccc2)c(=O)[nH]c1=O	11.6
CCOCCCNC(=O)C(NC(=O)c1ccc(NC(C)=O)cc1)c1ccc(C)cc1 (stereo not shown)	-20.5
COc1cc(OC)c(OC)cc1CN1CCCC(C(=O)c2ccccc2SC)C1 (stereo not shown)	-58.5
CCOC(=O)C1(C)C=C(Nc2cccc(OC)c2)C(=O)N1c1ccccc1 (stereo not shown)	6.72
O=C(O)c1ccc(COc2ccc(/C=N/NC(=O)c3cccs3)cc2)cc1	9.44
O=C(O)CCCc1ccc2ccc3cccc4ccc1c2c34	9.08
Cc1cccc(N(C(=O)CCC(=O)Nc2cc(C)on2)C(C(=O)NC2CCCC2)c2ccccc2)c1 (stereo not shown)	13.7
O=C(Nc1nccs1)c1ccc(Br)cc1	12.1
CCn1cc(CNC(=O)c2cc(COc3ccc(F)cc3F)on2)cn1	-5.98
COc1cccc(-c2c(C(=O)N/N=C/c3ccco3)nnn2-c2nonc2N)c1	7.22
CSc1sc(-c2ccnc(SCC(=O)C(C)(C)C)n2)c2c1C(=O)CC(C)(C)C2	10.8
CCCCN1C2=C(C(=O)CCC2)C(c2ccc(Cl)c(Cl)c2)C2=C1c1ccccc1C2=O (stereo not shown)	18.1

SMILES	hERG current change (%, negative = inhibition) at 10uM [%]
Cc1ccc(CS(=O)(=O)Cc2ccc(C(=O)NC3CC3)o2)cc1	7.4
CCn1cc(C(=O)NCC(=O)OC)c2cc(OC)c(OC)cc2c1=O	-0.272
O=C1c2ccccc2C(=O)N1CCCOCc1c[nH]c(=O)[nH]c1=O	11.8
O=C(O)C(Cc1ccc(F)cc1)c1ccccc1 (stereo not shown)	13.4
C#CCOC(=O)Nc1cnccc1C(F)(F)F	5.49
Cc1ccc(NS(=O)(=O)c2cc(C(=O)Nc3cccc(N(C)S(C)(=O)=O)c3)ccc2C)c(C)c1	11.2
CCOC(=O)c1cc(C)n(-c2c(C)n(C)n(-c3ccccc3)c2=O)c1C	21.6
CN(Cc1cccs1)C(=O)C1CCN(S(=O)(=O)c2ccccc2)CC1	-23.8
O=C(Nc1cccc(C(F)(F)F)c1)OCCN1CCN(Cc2ccccc2)CCC1=O	-49.9
Cc1ccc(Nc2nnns2)cc1	18
COc1cccc(OC)c1C(=O)N=c1sc2cc(S(C)(=O)=O)ccc2n1C	8.26
Cc1ccc(NC(=O)C(OC(=O)c2cnc(C)cn2)c2ccccc2)c([N+](=O)[O-])c1 (stereo not shown)	-21.6
CC(=O)c1ccc(O)c(CC=C(C)C)c1	1.81
O=C(CCS(=O)(=O)Cc1ccccc1)Nc1ccc2c(c1)OCCO2	17.5
COc1ccc([C@H]2C=C3CN(C(=O)OC(C)(C)C)S(=O)(=O)[C@H]3C[C@H]2OC(=O)c2cccs2)cc1	2.33
COc1cccc(CNC(=O)CCC2CCCN(C(=O)c3cscn3)C2)c1 (stereo not shown)	6.49
COc1ccc(CCNC(=O)c2cc(S(=O)(=O)N3CCOCC3)ccc2F)cc1	-18
CCOc1ccc(S(=O)(=O)N2CCN=C2c2ccccc2)cc1	-15.9
O=C(NNC(=S)NC(=O)C12CC3CC(CC(C3)C1)C2)c1ccncc1	19.8
COc1ccc([C@H]2CC(=O)C=C(c3cccc(C(C)C)c3)C2)cc1	-2.79
COc1ccc(NC(=O)C2CCN(c3cnccn3)CC2)cc1Cl	7.57
COC(=O)Cc1ccc(NC(=S)NCc2ccc(Cl)cc2)cc1	-30
Cc1onc(-c2ccccc2Cl)c1C(=O)Nc1ccccc1	-5.01
O=C(Nc1cc(SCCO)cc([N+](=O)[O-])c1)c1ccc(Br)o1	-29.5
CCC(CC)NC(=O)COC(=O)c1cc(SC)ccc1Cl	-0.371
NC(=O)Cn1c(=O)n(CCCC(=O)NC2CCN(Cc3ccccc3)CC2)c(=O)c2ccccc21	-6.48
O=C(c1ccc(C#CC2(O)CCCCC2)cc1)N1CCN(C(c2ccccc2)c2ccccc2)CC1	20.3

— publication PMC4336329 (PLoS ONE, 2015)
